US11365205B2 (Aurigene Discovery Technologies Limited, priority 2018, dated 2022)

These molecules were tested against PRMT5/MEP50 Complex (Homo sapiens (Human), UniProt O14744) (assay: PRMT5 inhibition based on TR-FRET assay). Conditions: 32 nM PRMT5:MEP50, 50 nM Histone-H4 peptide, 1 μM SAM.
Format: biochemical
Description: PRMT5 Inhibition Based on TR-FRET Assay:
Protein arginine methyltransferase 5 (PRMT5) is a type II arginine methyltransferase that catalyze mono- and symmetric demethylation on arginine residues of histone or non-histone proteins in presence of S-adenosylmethionine (AdoMet or SAM) a cofactor responsible for donating the methyl group. PRMT5 is reported to be overexpressed in several human cancers. To identify compounds that inhibit the PRMT5 and decrease its activity, a TR-FRET based assay has been established. Time-resolved fluorescence resonance energy transfer (TR-FRET) HTS assays are homogeneous proximity assays where the interaction of two dye-labeled binding partners is detected by the energy transfer between a donor and an acceptor dye and the subsequent light emission by the acceptor dye. PRMT5 catalyzes Histone H4 peptide which is biotin tagged to the Lysine amino acid at carboxyl end, in presence of S-adenosyl-1-methionine (SAM) to methylate the peptide. The antibody specific to mono methylated H4 peptide (H4R3) with Ig conjugate binds to the methylated peptide, indirectly binding to the Europium lanthanide. SureLight Allophycocyanin-Streptavidin binds to the biotin tag of the peptide, therefore accepting the energy transferred from the Europium lanthanide. This energy transfer between Europium to SureLight Allophycocyanin is a direct measure of the activity/inhibition of the PRMT5 enzyme.
Assay buffer: 20 mM BICINE (pH 7.6), 25 mM NaCl, 2 mM DTT, 0.01% Tween-20 and 0.01% BSA.
The compound dilutions were prepared as 7.5% DMSO stock solutions in assay buffer. To 2 μL (7.5×) of test compound, 5 μL of PRMT5 enzyme prepared in assay buffer (Final concentration of 32 nM in 15 μL reaction volume) was added and allowed for 30 minutes pre-incubation time in a white polystyrene 384-well plate at room temperature. […] The plates were then read on Victor-3 with Excitation at 340 nm and Emissions collected at 615 and 665 nm in TR-FRET protocol. […]

UniProt O14744, sequence (O14744 whole entry): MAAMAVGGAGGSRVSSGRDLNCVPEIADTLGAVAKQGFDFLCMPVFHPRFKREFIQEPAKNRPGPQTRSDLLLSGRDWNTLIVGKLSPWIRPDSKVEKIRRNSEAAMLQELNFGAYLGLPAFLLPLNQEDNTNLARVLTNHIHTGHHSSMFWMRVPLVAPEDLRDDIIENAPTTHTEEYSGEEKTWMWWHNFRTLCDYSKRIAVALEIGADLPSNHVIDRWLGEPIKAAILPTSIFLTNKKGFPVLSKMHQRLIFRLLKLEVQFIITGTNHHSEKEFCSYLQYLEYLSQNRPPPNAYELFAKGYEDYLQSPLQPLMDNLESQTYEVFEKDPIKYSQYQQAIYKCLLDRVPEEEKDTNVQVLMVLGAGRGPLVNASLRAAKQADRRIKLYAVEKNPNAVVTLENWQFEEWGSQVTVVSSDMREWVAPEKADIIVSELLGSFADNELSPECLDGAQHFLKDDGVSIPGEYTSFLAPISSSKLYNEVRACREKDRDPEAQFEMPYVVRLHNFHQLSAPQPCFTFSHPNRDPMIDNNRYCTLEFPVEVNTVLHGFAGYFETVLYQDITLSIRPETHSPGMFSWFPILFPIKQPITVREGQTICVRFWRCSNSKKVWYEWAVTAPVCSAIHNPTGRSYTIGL
UniProt O14744, sequence (Q9BQA1 whole entry partner): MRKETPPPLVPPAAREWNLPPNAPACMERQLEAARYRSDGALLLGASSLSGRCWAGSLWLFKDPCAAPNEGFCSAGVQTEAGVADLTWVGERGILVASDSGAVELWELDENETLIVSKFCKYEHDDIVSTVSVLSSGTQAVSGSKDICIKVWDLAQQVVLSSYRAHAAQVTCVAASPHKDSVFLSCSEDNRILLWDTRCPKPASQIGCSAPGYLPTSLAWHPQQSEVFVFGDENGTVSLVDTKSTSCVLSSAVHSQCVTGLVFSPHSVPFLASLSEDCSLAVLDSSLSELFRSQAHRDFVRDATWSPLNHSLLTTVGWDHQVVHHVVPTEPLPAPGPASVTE

Row | IC50 [nM] | Structure (SMILES)
1 | 10 | Cn1cnc2ccc(Cn3c(=O)n(CC(O)CN4CCc5ccccc5C4)c4ccccc43)cc21 (single isomer, unassigned) [Example 84a, 1-(3-(3,4-Dihydroisoquinolin-2(1H)-yl)-2-hydroxypropyl)-3-((1-methyl-1H-benzo[d]imidazol-6-yl)methyl)-1,3-dihydro-2H-benzo[d]imidazol-2-one]
2 | 40 | Cc1ccccc1Cn1c(=O)n(CC(O)CN2CCc3ccccc3C2)c2ccccc21 (stereo not drawn) [Example 87, 1-(3-(3,4-Dihydroisoquinolin-2(1H)-yl)-2-hydroxypropyl)-3-(2-methylbenzyl)-1,3-dihydro-2H-benzo[d]imidazol-2-one]
3 | 260 | Cc1cccc(Cn2c(=O)n(CC(O)CN3CCc4ccccc4C3)c3ccccc32)c1 (stereo not drawn) [Example 90, 1-(3-(3,4-Dihydroisoquinolin-2(1H)-yl)-2-hydroxypropyl)-3-(3-methylbenzyl)-1,3-dihydro-2H-benzo[d]imidazol-2-one]
